These results are taken from ChEMBL document CHEMBL1201862, “PubChem BioAssay data set” (2004).

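In this assay, cells in 96-well plates receive the compound at five concentrations for 48 hours. Endpoints are linearly interpolated between the surrounding concentrations. GI50 marks 50% less growth.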 Activity calls are given as the source filed them. Rule as the data show it: active = GI50 up to about 1.1 µM and inactive = higher.

The test system of this test is NCI-H322M. The test is described as follows: growth of human tumour cells (NCI), 48 h.
With `O=C1C(c2c(O)[nH]c3ccc(S(=O)(=O)O)cc23)=Nc2ccccc21`, the GI50 is inactive: > 100 µM.
Regarding `O=C1c2c(O)cccc2C(C2OC(CO)C(O)C(O)C2O)c2cc(CO)cc(O)c21` (stereo not drawn), the GI50 was inactive: > 100 µM.
To `CC12CCC(C1)C(C)(C)C2OC(=O)c1ccccc1C(=O)O` (stereo not drawn) belongs inactive: > 100 µM; to `CC1=C(Nc2c(C)cc(O)cc2O)C(=O)C=c2oc3c(c21)C(C)=C(Nc1c(C)cc(O)cc1O)C(=O)C=3`, inactive: 31.2 µM; to `NNc1nncc2[nH]cnc12`, inactive: > 100 µM.
For `CCCCSC1=N/C(=C\c2ccco2)C(=O)N1`, the GI50 is inactive: > 100 µM.
On to `CC(C)(CN1CCCCC1)C(=O)CC(SCCS(=O)(=O)O)c1ccc(Cl)c(Cl)c1` (stereo not drawn), for which the GI50 was inactive: 10 µM.
`CC1(C)OC[C@H](C(=N)OCc2ccccc2)O1`: the GI50 was inactive: > 100 µM.
Take `O=C(c1ccco1)N(C(=S)N1CCN(c2ccccn2)CC1)C1CCCCC1`: the GI50 was inactive: > 100 µM.
As for `O=C1Nc2ccccc2/C1=N/Nc1nc(-c2ccc(Br)cc2)cs1`, the GI50 is inactive: 34.5 µM.
For `CCn1c(SCC(=O)NNC(=S)Nc2ccc(C)cc2)nc2ccccc2c1=O` the value was inactive: > 100 µM; for `CC(C)[Si](OC/C(=C/COC(C)(C)C)[C@H]1CC=C(C(=O)c2ccccc2N2CN(C)C(=O)N(C)C2)C1)(C(C)C)C(C)C`, inactive: 17.2 µM.
Take `N#CC(NNC(=O)c1c(Cl)c(Cl)c(Cl)c(Cl)c1-c1nc2cc(C(=O)c3ccccc3)ccc2[nH]1)c1ccccc1` (stereo not drawn): the GI50 was inactive: 26.2 µM.
Regarding `COc1ccc(/N=C2\C(=N/c3ccc(OC)cc3)N(S(=O)(=O)c3ccccc3)C(=S)N2c2ccc(OC)cc2)cc1`, the GI50 is inactive: > 100 µM.
For `c1cnc2c(c1)-n1cccc1C1(CCSC1)NN2` (stereo not drawn) the value was inactive: > 100 µM.
Consider `COc1ccc(CC2NCCc3cc(OC)c(OC)cc32)cc1` (stereo not drawn), for which the GI50 is inactive: > 100 µM.
To `CC(C)Oc1cccc(N2C(Nc3ccccc3)=Nc3ccncc3S2(=O)=O)c1` belongs inactive: 43.3 µM; to `CC(=O)OC(OC(C)=O)c1ncccc1C(=O)OC(C)C`, inactive: > 100 µM.
On to `Cc1ccc2c(=O)c(-c3nnc(NC4CCCCC4)s3)c[nH]c2n1`, for which the GI50 was inactive: > 100 µM.
For `N/C(=N\c1ccc(Cl)c(Cl)c1)c1ccccc1N` the value was inactive: 29.2 µM.
For `O=[N+]([O-])/C=C(\CS(=O)(=O)c1ccccc1)c1ccc2c(c1)OCO2`, the GI50 was inactive: 86.1 µM.
Take `NS(=O)(=O)c1cc2c(cc1Cl)NC(C(=O)c1cc(=O)c3ccc(O)cc3o1)=NS2(=O)=O`: the GI50 was inactive: > 100 µM.
`O=C1c2cccc3cc([N+](=O)[O-])cc(c23)C(=O)N1CCCN1CCN(CCCNc2ccc3ncn4c5ccccc5c(=O)c2c34)CC1`: the GI50 is active: < 0.005 µM.
With `C=C[C@@]1(C)CC2(C=C(CO)C(O)O2)Oc2c1c(=O)oc1cccc(C)c21` (stereo partly drawn), the GI50 is inactive: 22.9 µM.
For the compound `CC(C)CC(=O)N1CCN(C(=O)CC(C)C)c2ccccc21`, the GI50 was inactive: > 100 µM.
Consider `Cc1ccc(Nc2cn(COCc3ccccc3)c(=O)[nH]c2=O)cc1`, for which the GI50 is inactive: > 100 µM.
On to `CCOC(=O)C1=[N+]([O-])OC2=C(O)CCCC21` (stereo not drawn), for which the GI50 is inactive: > 100 µM.
In the case of `O=C(NCCCCCCNC(=O)c1cccc2ccccc12)Nc1cccc2ccccc12`, the GI50 is inactive: > 100 µM.
For `CCN1CCC(O)(/C=C/c2ccccc2)C(C(=O)/C=C/c2ccccc2)C1` (stereo not drawn), the GI50 is inactive: 5.5 µM.
With `Cc1cc2c(=O)cc(-c3ccc(F)cc3)oc2c(C(=O)O)c1C`, the GI50 is inactive: > 100 µM.
In the case of `O=[N+]([O-])c1ccc2c(c1)Sc1ccccc1N2`, the GI50 was inactive: > 100 µM.
For the compound `O=C1CC(c2ccccc2)[S+]([O-])c2ccccc2N1` (stereo not drawn), the GI50 was inactive: > 100 µM.
For the compound `C(#C[C@@]12CCC[C@@H]1N(Cc1ccccc1)CO2)c1ccc2c(c1)OCO2`, the GI50 was inactive: > 100 µM.
`COC(=O)n1c(=O)n(-c2ccccc2)c(=O)n1C(=O)OC`: the GI50 was inactive: > 100 µM.
With `OC1(c2cccs2)c2cccc(Cl)c2C(O)(c2cccs2)c2c(Cl)cccc21` (stereo not drawn), the GI50 was inactive: > 100 µM.
For `Oc1ccccc1/C=C/c1csnn1` the value was inactive: > 100 µM; for `CCN(CC)c1nc(NC2CCCCC2)c2nc(N(CC)CC)nc(NC3CCCCC3)c2n1`, inactive: > 100 µM; for `Cc1ccc(NC(=O)/C(Cc2cc(=O)oc3cc(O)ccc23)=N\NC(C)(C)C)cc1C`, inactive: > 100 µM.
With `CN(C)CC1COC2Cc3ccccc3C1O2` (stereo not drawn), the GI50 was inactive: > 100 µM.
Regarding `NCc1cc(O)c(O)c(O)c1`, the GI50 was inactive: > 100 µM.
As for `CCOC(=O)CC1NC(=O)CS1` (stereo not drawn), the GI50 was inactive: > 100 µM.
Take `c1ccc2c(c1)N=C(c1cccc3ccccc13)CC(c1ccc3c(c1)OCO3)S2` (stereo not drawn): the GI50 was inactive: > 100 µM.
In the case of `CCN1CCc2sc3nc(S)n(C)c(=O)c3c2C1`, the GI50 is inactive: > 100 µM.
For `CCN(CC)c1ccc(/C=c2\nc(-c3ccccc3)n3c2nc2ccccc23)cc1` the value was inactive: 1.73 µM; for `CC1(C)OCC(C2OC(C)(C)OC2[C@H]2O[C@@]3(O)[C@H]4[C@H](C=CC[C@@H]42)[C@@H](OCc2ccccc2)[C@H](OCc2ccccc2)[C@H]3OCc2ccccc2)O1` (stereo partly drawn), inactive: 78.7 µM.
`CC(=O)Nc1sccc1S(=O)(=O)c1ccc(Cl)cc1`: the GI50 is inactive: > 100 µM.
For `COC(=O)C1C(/C=C/c2ccoc2)ON2CCC[C@@H]12` (stereo partly drawn) the value was inactive: > 100 µM; for `O=C1CC2(C[C@@H]3CCCCCCCCC[C@@H](C3)C2)N1` (stereo partly drawn), inactive: 17.4 µM; for `CC1=NN(c2nc(N)nc(CS(C)(=O)=O)n2)C(C)(C)C1`, inactive: > 100 µM.
Take `COC(=O)C(=O)C(C(=O)C(=O)Nc1nnc(S)[nH]1)c1nc2ccc([N+](=O)[O-])cc2nc1O` (stereo not drawn): the GI50 is inactive: > 100 µM.
Turning to `O=C(O)c1ccccc1C(=O)c1ccc2c(c1)Cc1ccccc1-2`, the GI50 is inactive: 95.5 µM.
As to `C[C@@H]1C[C@H]2OC(=O)[C@@]3(C)CCC[C@@](C)([C@@H]23)[C@@]1(O)CCc1ccoc1`, the GI50 is inactive: > 100 µM.
For `CC1=C(Cl)C=CP(=O)(Oc2ccccc2)C1` (stereo not drawn) the value was inactive: > 100 µM; for `N#CC1CCCCOCCOCCOCCOCCOCCCCCC1=O` (stereo not drawn), inactive: > 100 µM; for `COc1ccc(/C=C/C(=O)c2cc(C(=O)O)c(OC)cc2OC)cc1OC`, inactive: > 100 µM.
For `O=C1CC(c2ccc([N+](=O)[O-])cc2)C2(C(=O)NC(=S)NC2=O)C(c2ccc([N+](=O)[O-])cc2)C1` (stereo not drawn) the value was inactive: 13.4 µM; for `CCOC(=O)c1cnc2[nH]c(=O)c3ccccc3n2c1=O`, inactive: > 100 µM; for `CCN(C(=O)N[C@H](C(=O)N[C@@H](CSC)C(=O)N[C@@H](C)C(=O)OC)C(C)C)c1ccccc1`, inactive: 15.8 µM.
As to `O=[N+]([O-])/C(Cl)=C(\Sc1ccccc1)C(Cl)=C(Cl)Cl`, the GI50 was inactive: 1.96 µM.
As to `CCOC(=O)C1C/C(C)=C(/C)SCCCS1` (stereo not drawn), the GI50 was inactive: > 100 µM.
With `Cc1ccc(/N=N/C(=N/NC(=O)c2cc(Cl)ccc2C(=O)c2ccccc2)c2ccc(N(CCC#N)CCC#N)cc2C)cc1`, the GI50 is inactive: 16.8 µM.
As to `COc1ccc(CCN(C)C(=O)CC(C#N)(c2ccccc2)c2ccc(OC)c(OC)c2)cc1OC` (stereo not drawn), the GI50 was inactive: > 100 µM.
Consider `O=C(CC(=O)c1cccc([N+](=O)[O-])c1)C(=O)Nc1ccccc1`, for which the GI50 was inactive: > 100 µM.
For the compound `CC(C)C(NCc1c2ccccc2nc2ccccc12)C(=O)O` (stereo not drawn), the GI50 is inactive: > 100 µM.
In the case of `Cc1ccc(S(=O)(=O)CNC(=O)C(O)(O)C(F)(F)F)cc1`, the GI50 is inactive: > 100 µM.
Consider `Cc1cn(CC2(CO)CCC2)c(=O)[nH]c1=O`, for which the GI50 is inactive: > 100 µM.
Take `COC(=O)[C@H]1CO[C@@H](C(C)(C)C)N1C(=O)N1C=CC(=O)C[C@@H]1C`: the GI50 was inactive: > 100 µM.
In the case of `O=C(Cn1c2ccc(Br)cc2c2nc3ccccc3nc21)Nc1ccccc1`, the GI50 was inactive: 54.2 µM.
Turning to `COc1cc(C2S/C(=C/c3ccccc3)C(=O)N2c2cc(Cl)c(Cl)cc2Cl)cc(OC)c1OC` (stereo not drawn), the GI50 is inactive: 35.3 µM.
Take `O=Cc1c(O)ccc2ccc(O)c(-c3c(O)ccc4ccc(O)cc34)c12`: the GI50 was inactive: > 100 µM.
Consider `O=c1n(-c2ccc(Cl)c(Cl)c2)c(=O)n(-c2ccc(Cl)c(Cl)c2)c(=O)n1-c1ccc(Cl)c(Cl)c1`, for which the GI50 is inactive: 2.17 µM.
Regarding `CC(C)(C)OC(=O)n1c2ccccc2c2c(=O)nc(N3CCCCC3)sc21`, the GI50 was inactive: > 100 µM.
For the compound `Oc1ccc2ccccc2c1/N=N/c1ccc(Br)cc1`, the GI50 is inactive: > 100 µM.
For `CCOC(=O)c1nc2ccccc2nc1Oc1ccc(F)cc1` the value was inactive: > 100 µM.
In the case of `O=C1CCNC(=O)NC1`, the GI50 is inactive: > 100 µM.
For `Cc1ccc(S(=O)(=O)N2CCC2c2ccccc2)cc1` (stereo not drawn) the value was inactive: > 100 µM; for `CC1C(=O)O[B-]2(c3ccccc3)Oc3ccccc3C=[N+]12` (stereo not drawn), inactive: > 100 µM; for `CCSCCCCC(c1ccc(O)cc1)C(C)(CC)c1ccc(O)cc1` (stereo not drawn), inactive: > 100 µM.
As for `CC1CC[C@]2(C(=O)O)CCC3(C)C(=CCC4[C@@]5(C)CC[C@H](OS(=O)(=O)c6ccccc6)C(C)(C)C5CC[C@]43C)[C@@H]2[C@H]1C` (stereo partly drawn), the GI50 is inactive: 84.7 µM.
To `COc1cc2c(c(OC)c1OC)-c1ccc(SC)c(=O)cc1[C@@H](NCc1ccc(F)cc1)CC2` belongs active: < 0.0075 µM.
For `CCc1ccc2nc(-c3ccc(O)cc3)sc2c1` the value was inactive: 17.5 µM.
To `CO[C@@H]1C[C@H]2N3CC[C@@]2(c2cc4c(cc2C3)OCO4)[C@H]2O[C@@H]12` belongs inactive: > 100 µM; to `O=C(NNC(=O)c1cc2ccccc2[nH]1)c1cc2ccccc2[nH]1`, inactive: > 100 µM.
